# Test results reported in PMC4336329 (PLoS ONE, 2015).
# In all, about 310,000 compounds went through this assay and about 2,200 (0.71%) showed an effect of 50% or more. The effect is printed as a negative number. Some of the results follow.
# Target: human ether-à-go-go-related gene (hERG) potassium channel (human, UniProt Q12809)
# Test: primary screen, population patch clamp on CHO cells stably expressing hERG
# human ether-à-go-go-related gene (hERG) potassium channel, sequence (Q12809 whole entry, looked up): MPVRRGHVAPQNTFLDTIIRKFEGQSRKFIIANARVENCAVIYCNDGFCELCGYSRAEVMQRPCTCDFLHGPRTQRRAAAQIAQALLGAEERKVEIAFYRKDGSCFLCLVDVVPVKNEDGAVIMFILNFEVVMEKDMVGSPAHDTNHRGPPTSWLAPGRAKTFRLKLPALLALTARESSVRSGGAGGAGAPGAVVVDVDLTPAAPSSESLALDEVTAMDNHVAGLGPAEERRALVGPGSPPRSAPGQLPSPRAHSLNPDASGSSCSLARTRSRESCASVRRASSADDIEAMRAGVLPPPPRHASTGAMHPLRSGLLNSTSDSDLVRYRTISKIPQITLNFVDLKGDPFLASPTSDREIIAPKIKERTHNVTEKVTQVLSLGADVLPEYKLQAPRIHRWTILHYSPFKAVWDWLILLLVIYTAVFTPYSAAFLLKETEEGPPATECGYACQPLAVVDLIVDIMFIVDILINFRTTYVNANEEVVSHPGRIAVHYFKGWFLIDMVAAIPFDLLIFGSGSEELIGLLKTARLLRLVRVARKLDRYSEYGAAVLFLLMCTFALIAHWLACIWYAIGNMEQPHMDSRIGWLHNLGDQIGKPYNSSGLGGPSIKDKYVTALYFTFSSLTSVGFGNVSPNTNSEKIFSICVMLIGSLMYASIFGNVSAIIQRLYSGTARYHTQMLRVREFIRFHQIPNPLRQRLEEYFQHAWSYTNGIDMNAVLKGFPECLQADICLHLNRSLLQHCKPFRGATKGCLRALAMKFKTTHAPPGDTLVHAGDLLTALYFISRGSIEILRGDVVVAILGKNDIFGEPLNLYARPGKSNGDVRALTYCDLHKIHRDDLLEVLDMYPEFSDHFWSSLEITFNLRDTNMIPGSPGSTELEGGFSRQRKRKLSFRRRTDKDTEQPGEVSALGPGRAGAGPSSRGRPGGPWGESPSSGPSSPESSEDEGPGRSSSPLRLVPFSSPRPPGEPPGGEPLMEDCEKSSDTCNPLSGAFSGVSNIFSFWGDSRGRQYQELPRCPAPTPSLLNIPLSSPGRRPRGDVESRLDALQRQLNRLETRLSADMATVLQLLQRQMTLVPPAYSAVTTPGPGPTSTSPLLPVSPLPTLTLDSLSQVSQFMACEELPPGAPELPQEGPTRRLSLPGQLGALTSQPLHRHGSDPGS
row,Compound,"hERG current change (%, negative = inhibition) at 1uM [%]"
1,O=C(CSc1nc(Cc2ccccc2)nc2ccccc12)Nc1nc2c(s1)CCCC2,15.9
2,COCc1ccc(-c2c(-c3ccccc3OC)sc3cc4c(cc23)OCO4)cc1,13.3
3,COc1ccccc1NC(=O)/C=C\C(=O)O,14.5
4,COc1cccc(CNC(=O)c2cccs2)c1,2.23
5,O=c1oc2ccccc2c(NCc2cccc(F)c2)c1[N+](=O)[O-],1.4
6,COCc1c(C(=O)NCc2ccccc2CN2CCCC2)oc2ccccc12,-34
7,O=c1[nH]c(/C=C/c2cccc([N+](=O)[O-])c2)c([N+](=O)[O-])c(=O)[nH]1,6.3
8,Cc1ccc(-c2csc(NC(=O)c3cccc(C)c3)c2C(=O)O)cc1,15.8
9,CCOc1ccc(NC2c3ccccc3C(=O)N2Cc2ccc3c(c2)OCO3)cc1 (centres unmarked),8.68
10,CCOc1ccc(N(CC(=O)NCc2ccc3c(c2)OCO3)C(=O)c2csnn2)cc1,13.2
11,CC(C)CCN(C(=O)C1CSC2(C)CCC(=O)N12)c1c(N)n(Cc2ccccc2)c(=O)[nH]c1=O (centres unmarked),12.2
12,Cc1ccc(-c2ccc(S(=O)(=O)N3CC(C)OC(C)C3)cc2)cc1 (centres unmarked),12.4
13,C#CCOc1ccc(/C=N/O)cc1Cl,12.1
14,O=C(c1cccc(Cl)c1)C1CCCN(Cc2cccc3cnccc23)C1 (centres unmarked),12.1
15,CCC(C)n1c(-c2cccc(S(=O)(=O)N(CC)CC)c2)n[nH]c1=S (centres unmarked),16.4
16,N#C/C(=C(/O)COC(=O)CSc1ccc(Cl)cc1)c1nc2ccccc2[nH]1,14.2
17,CCN(CC)S(=O)(=O)c1ccc(N2CCCC2)c(NC(=O)c2c(-c3ccccc3)noc2C)c1,13.4
18,CCCc1cc(=O)oc2cc(OCC(=O)N3CCN(C(=O)C4COc5ccccc5O4)CC3)ccc12 (centres unmarked),-4.16
19,C/C(=N\NC(N)=O)c1ccc(Cl)s1,18.5

row,Compound,"hERG current change (%, negative = inhibition) at 1uM [%]"
1,COc1cc(-c2c(-c3cc(OC)c(OC)c(OC)c3)noc2C)ccc1F,10.9
2,Cc1ccccc1C(=O)NCCNC(=O)c1ccccn1,12.9
3,Cc1cc(S(=O)(=O)NCC(C)C)ccc1OCC(=O)NCc1ccccn1,0.901
4,COc1ccc(CNC(=O)CCN2C(=O)[C@@H]3Cc4ccccc4CN3C2=O)cc1,7.79
5,COc1ccc(N2CC(C(=O)Nc3cc(C(F)(F)F)ccc3N3CCCC3)CC2=O)c(OC)c1 (centres unmarked),8.09
6,CN(Cc1ccccc1)CC(O)COc1ccc(CNCCc2cccnc2)cc1 (centres unmarked),-1.66
7,COC(=O)c1ccc(N/N=C/c2cc([N+](=O)[O-])cc(OC)c2O)cc1,7.2
8,CNC(=S)N(CCc1c(C)[nH]c2ccc(C)cc12)Cc1cc(OC)c(OC)c(OC)c1,14.8
9,Cc1ccc(N(C(=O)c2ccc(S(=O)(=O)N(C)C)cc2)C2C=CS(=O)(=O)C2)cc1 (centres unmarked),14.5
10,CC(=O)c1ccc(NC(=O)c2ccc(S(=O)(=O)c3ccccc3)cc2)cc1,8.83
11,Cc1ccc(-c2csc3nc4cc(C(=O)NC5CCC(O)CC5)ccc4c(=O)n23)cc1 (centres unmarked),5.66
12,CCS(=O)(=O)N1CCC(C(=O)NCCc2ccccc2)CC1,10.5
13,C/C(=C/C#N)Nc1ccc(C)cc1,7.26
14,CCCCn1c(N)c(N(CC(C)C)C(=O)c2cc(S(=O)(=O)N3CCOCC3)ccc2Cl)c(=O)[nH]c1=O,5.97
15,CCOc1ccc(Oc2nc(Nc3ccc(C)cc3)nc(N(C)C)n2)nn1,15.4
16,COc1ccc(Cn2c(CO)cnc2SCC(=O)Nc2cccc(NC(C)=O)c2)cc1,16.8
17,O=C(Nc1ccccc1)c1snc2c(=O)[nH]cnc12,21.7
18,Cc1cccc(N2CCN(C(=O)CCN3C(=S)NC(C)(C)CC3C)CC2)c1C (centres unmarked),4.44
19,COC(=O)c1c(NC(=O)/C=C/C(=O)O)sc(C)c1-c1ccc(C(C)C)cc1,8.97

row,Compound,"hERG current change (%, negative = inhibition) at 1uM [%]"
1,O=C(NC1CCCCCC1)C(Cc1ccccc1)n1cccc1 (centres unmarked),12.6
2,Cc1ccsc1/C=N/n1c(-c2ccccn2)n[nH]c1=S,8.13
3,CCc1ccc(-n2c(O)cnc2Nc2nc(C)cc(C)n2)cc1,5.91
4,C#Cc1ccc([C@@H]2C=C(C(=O)OCC=C)O[C@H](OCC)[C@H]2CCCO)cc1,10
5,COCCCNC(=O)COc1cc2c(c3oc(=O)c(C)c(C)c13)CCC(C)(C)O2,-3.73
6,Fc1ccc(OCc2nnc(SCCN3CCOCC3)o2)cc1,-1.43
7,O=C(N1CCN(c2ccc(F)cc2)CC1)C12CC3CC(CC(C3)C1)C2,14.1
8,C/C(=N\NC(=O)c1ccc(CSc2nncn2C)cc1)c1cccs1,10.1
9,O=C(NCc1cccc(Cl)c1)c1cc(COc2ccc3ncccc3c2)on1,12.8
10,Cc1c(C(=O)Nc2ccccn2)oc2ccccc12,8.21
11,CCc1ccc(Nc2nnc(SCc3cc(=O)n4ccsc4n3)s2)cc1,-5.58
12,O=C(CCl)Nc1ccccc1Sc1ccc(Cl)cc1,-0.584
13,O=C(C1CC1)N1CCc2[nH]c3ccccc3c2C1,6.65
14,Cc1ccc(C2CN=NC23CCc2ccccc2C3=O)cc1 (centres unmarked),-1.71
15,CCCCSc1cc(C)nc2ncnn12,-1.6
16,CC12CC3CC(C)(C1)CC(C(=O)NNC(=O)c1ccncc1)(C3)C2,-7.13
17,Cc1ccc(C(C(=O)NCC2CCCO2)N(C(=O)c2snc(C(N)=O)c2N)c2ccc(C)c(C)c2)o1 (centres unmarked),7.74
18,O=C(C1c2ccccc2C(=O)N2CCc3ccccc3C12)N1CCN(Cc2ccccc2)CC1 (centres unmarked),5.55
